Measurements as given in the supplement of paper PMC12217912.
Some of the results follow. The full chains were built here from the parent and the listed change. Inactive controls read about 0.05.

B1: TEV protease; numbered along this chain (parent)
chain: MGESLFKGPRDYNPISSSICHLTNESDGHTTSLYGIGFGPFIITNKHLFRRNNGTLVVQSLHGVFKVKDTTTLQQHLVDGRDMIIIRMPKDFPPFPQKLKFREPQREERICLVTTNFQTKSMSSMVSDTSCTFPSGDGIFWKHWIQTKDGQCGSPLVSTRDGFIVGIHSASNFTNTNNYFTSVPKNFMELLTNQEAQQWVSGWRLNADSVLWGGHKVFMVKPEEPFQPVKEATQL

Variants of: B1
Assay: raw area under fraction-flipped curve 0-4 h after induction (AUC4h, not background-subtracted), DNA-recorder readout of cleavage of the substrate (dimensionless); higher = more cleavage of the substrate by the protease variant
Details: temperature: 34 °C; time window: 0-4 h after rhamnose induction
Procedure: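 In vivo DNA recorder in E. coli TOP10(DE3) ΔrhaA at 34 °C. Each TEVp single-site mutant (parent TEVp 0) is paired with a single-site variant of the 7-mer TEVs (canonical ENLYFQ|S). The substrate sits between flexible linkers in a Bxb1-sfGFP-TEVs-SsrA fusion, so cleavage stabilises Bxb1 and speeds flipping of a recombination array, read by NGS. The value is the raw area under the fraction-flipped curve over 0-4 h after rhamnose induction (AUC4h), with ≥20 reads per time point. It is not background-subtracted; inactive controls average about 0.047.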
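Also: Bxb1 expression induced with 0.2% (w/v) L-rhamnose at OD600 near 0.5, cultures sampled hourly, flipped fraction per protease–substrate barcode pair counted by paired-end Illumina sequencing.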

Variant	area with substrate ENLYDQS	area with substrate ENLYEQS	area with substrate ENLYGQS	area with substrate ENLYMQS	area with substrate ENLYNQS	area with substrate ENLYQQS	area with substrate ENLYYQS	area with substrate ENLYHQS	area with substrate ENLYPQS	area with substrate ENLYRQS	area with substrate ENLYIQS	area with substrate ENLYKQS	area with substrate ENLYVQS	area with substrate ENLYSQS	area with substrate ENLYWQS	area with substrate ENLYTQS
F95N	0.0297	0.043	0.0727	0.0324	0.0438	0.0582	0.0618	–	–	–	–	–	–	–	–	–
Q97W	0.0447	–	–	–	–	–	–	0.0779	0.0525	0.0669	–	–	–	–	–	–
K98V	0.05	–	0.0736	–	–	–	–	0.0692	0.0855	–	0.11	0.0384	0.143	–	–	–
L99E	0.0754	–	–	0.0707	0.05	0.0544	–	0.043	0.0621	–	0.0974	0.0502	–	–	–	–
L99H	0.0595	–	–	–	–	0.0599	–	–	–	–	–	–	0.0985	–	–	–
L99I	0.0613	–	0.0269	–	0.0676	0.0626	–	0.0654	–	0.0508	0.0883	0.0215	0.11	0.0795	0.0757	–
L99M	0.0726	–	0.0616	0.0856	0.0737	–	–	0.0737	0.0851	–	–	0.0719	–	–	–	–
L99V	0.0633	0.0596	0.069	0.0856	0.0606	0.0597	0.0642	0.0863	–	–	–	0.0434	0.111	0.0551	–	0.0794
F101E	0.0604	0.0495	–	0.0379	0.0542	0.039	–	0.0509	–	–	0.0579	–	–	–	–	–
F101S	0.0436	0.044	–	0.0454	0.0433	0.0473	–	0.0645	0.0663	–	0.0475	0.0574	0.0499	–	–	–
R102E	0.0431	0.0557	–	–	–	–	–	–	0.0626	0.0447	0.0511	0.0475	–	–	0.064	0.104
E103I	0.0894	0.0752	0.0664	0.0791	–	0.0452	–	0.0641	0.0672	–	0.13	0.0586	–	–	0.0931	0.0875
E103P	0.0665	–	–	–	0.0751	–	–	0.0674	0.21	0.0642	0.132	–	0.104	–	–	–
E103S	0.0686	0.0348	0.07	–	–	0.0572	–	0.061	0.075	–	–	–	–	–	–	0.0844
E108G	0.0574	–	–	0.0725	–	0.0523	–	0.0508	–	–	0.0932	–	–	–	0.0667	0.0655
R109T	0.0703	0.0697	0.0675	0.0767	0.0723	–	–	0.0604	0.0798	0.044	0.123	–	–	–	0.0743	0.0967
C111A	0.0538	0.0836	–	0.102	–	–	0.0503	0.0897	0.0561	–	0.117	0.0382	–	–	0.0666	–
V113Y	0.0482	0.0649	0.0411	0.0893	0.0742	–	–	0.0599	0.0693	–	0.111	–	–	0.0706	0.0735	–
N116W	0.0815	0.0775	0.0661	–	0.0701	–	–	–	0.0648	0.0768	0.116	0.06	–	0.0577	–	–
F117P	0.0655	0.0562	0.0639	–	0.0723	–	–	0.0731	0.105	–	0.122	0.0662	0.116	0.0707	0.0709	–
